# Measured values published in the antibiotic and cytotoxicity screens of Wong et al. (2023).
# Some of the results follow.
# System: HepG2
# Assay: cytotoxicity call (relative viability < 0.9)
# Details: 10 µM
row,Structure (SMILES),cytotoxicity call
1,O=C(C[C@@H]1CC[C@H]2[C@@H](COC[C@H](O)CN2C(=O)c2ccncc2)O1)NCc1ccc(-c2ccccc2)cc1,inactive
2,COc1ccc(S(=O)(=O)N(C)C[C@@H]2Oc3ccc(NS(=O)(=O)c4c(C)noc4C)cc3C(=O)N([C@H](C)CO)C[C@@H]2C)cc1,active
3,COc1ccc(S(=O)(=O)N2C[C@H](O)COC[C@@H]3O[C@@H](CC(=O)NCCN4CCCCC4)CC[C@H]32)cc1,inactive
4,Cc1ccc(-c2ccc3c(c2)O[C@@H](CN(C)C(=O)CN(C)C)[C@H](C)CN([C@@H](C)CO)S3(=O)=O)cc1,inactive
5,COc1cc(OC)cc(C(=O)OCCCN2CCN(CCCOC(=O)c3cc(OC)cc(OC)c3)CC2)c1,inactive
6,CC(C)NC(=O)Nc1ccc2c(c1)C(=O)N([C@@H](C)CO)C[C@@H](C)[C@H](CN(C)S(=O)(=O)c1cn(C)cn1)OCCCC[C@@H](C)O2,inactive
7,Cc1noc(C)c1NC(=O)Nc1ccc2c(c1)C(=O)N([C@H](C)CO)C[C@H](C)[C@@H](CN(C)S(=O)(=O)c1cn(C)cn1)O2,inactive
8,C[C@H](CO)N1C[C@H](C)[C@H](CN(C)Cc2ccc(Cl)c(Cl)c2)Oc2ccc(NC(=O)CCC(F)(F)F)cc2CC1=O,inactive
9,CCCNC(=O)N(C)C[C@H]1Oc2ncc(-c3ccc(C(=O)N(C)C)cc3)cc2C(=O)N([C@H](C)CO)C[C@H]1C,inactive
10,O=C1C(CCS(=O)c2ccccc2)C(=O)N(c2ccccc2)N1c1ccccc1 (stereo not given),inactive
11,Cc1noc(C)c1NC(=O)Nc1ccc2c(c1)C(=O)N([C@H](C)CO)C[C@H](C)[C@@H](CN(C)C(=O)Nc1ccc3c(c1)OCO3)OCCCC[C@@H](C)O2,inactive
12,COc1ccc(NC(=O)Nc2cccc3c2O[C@@H](CN(C)C(=O)Nc2cccc4ccccc24)[C@@H](C)CN([C@@H](C)CO)C3=O)cc1,inactive
13,C[C@H]1CN([C@@H](C)CO)C(=O)c2cccc(NC(=O)Nc3ccc(C(F)(F)F)cc3)c2O[C@@H]1CN(C)Cc1ccc2c(c1)OCO2,inactive
14,C[C@@H]1CN([C@H](C)CO)C(=O)c2cccc(NS(=O)(=O)c3ccc(Cl)cc3)c2O[C@@H]1CN(C)Cc1ccc(Cl)c(Cl)c1,inactive
15,Cc1ccc(NC(=O)C[C@@H](N)C(=O)O)cc1,inactive
16,COc1ccc(S(=O)(=O)Nc2ccc3c(c2)C(=O)N([C@H](C)CO)C[C@H](C)[C@@H](CN(C)Cc2ccc(Cl)c(Cl)c2)OCCCC[C@H](C)O3)cc1,active
17,Cc1ccc(S(=O)(=O)Nc2ccc3c(c2)C(=O)N([C@H](C)CO)C[C@@H](C)[C@@H](CN(C)CC2CC2)O3)cc1,inactive
18,Cn1cnc2c1c(=O)[nH]c(=O)n2C,inactive
19,C[C@H](CO)N1C[C@H](C)[C@@H](CN(C)Cc2ccc(-c3ccccc3)cc2)Oc2ccc(NS(=O)(=O)c3ccc(Cl)cc3)cc2C1=O,active
20,Cc1noc(C)c1S(=O)(=O)N(C)C[C@@H]1Oc2c(NC(=O)c3cnccn3)cccc2C(=O)N([C@@H](C)CO)C[C@@H]1C,inactive
21,C[C@@H]1CN([C@H](C)CO)C(=O)c2cccc(NC(=O)c3nc4ccccc4s3)c2O[C@@H]1CN(C)Cc1ccc(C(F)(F)F)cc1,inactive
22,COc1ccc(NC(=O)Nc2cccc3c2O[C@@H](CN(C)Cc2ccc(Oc4ccccc4)cc2)[C@H](C)CN([C@@H](C)CO)C3=O)cc1,active
23,COCC#Cc1ccc2c(c1)O[C@@H](CN(C)C(=O)Nc1ccc(OC)cc1)[C@H](C)CN([C@H](C)CO)S2(=O)=O,inactive
24,COC[C@@H]1CN(C(=O)c2cscn2)N1C,inactive
25,C[C@@H]1CCCCO[C@@H](CN(C)Cc2ccccc2)[C@H](C)CN([C@@H](C)CO)C(=O)c2cc(NC(=O)C3CCCCC3)ccc2O1,inactive
26,Cc1[nH]c(=O)[nH]c(=O)c1S(=O)(=O)NCc1ccccn1,inactive
27,C[C@@H]1CN([C@@H](C)CO)C(=O)c2cc(NC(=O)Nc3ccc(C(F)(F)F)cc3)ccc2O[C@@H](C)CCCCO[C@@H]1CN(C)C(=O)Nc1ccccc1,inactive
28,C=CC1CN2CCC1CC2C(O)c1ccnc2ccc(OC)cc12 (stereo not given),inactive
29,C[C@@H]1CN([C@H](C)CO)C(=O)Cc2cc(NS(=O)(=O)c3cn(C)cn3)ccc2O[C@H]1CN(C)S(=O)(=O)c1ccc(Cl)cc1,inactive
30,C/C=C/c1ccc2c(c1)O[C@@H](CN(C)C(=O)c1ccc3c(c1)OCO3)[C@@H](C)CN([C@H](C)CO)S2(=O)=O,inactive
